Measurements taken from US20250295802A1, “HER3 ANTIBODY-DRUG CONJUGATE AND USE THEREOF” (DUALITY BIOLOGICS (SUZHOU) CO., LTD., priority 2022, published 2025).

Assays:
HER3 [1] = biological target: T1, HER3 (Homo sapiens, UniProt P21860); test: ELISA binding affinity after repeated freeze-thaw
T1 construct: human Fc (huFc)
Description: (§1) ELISA assay: human HER2-ex-huFc, human HER3-huFc, and human EGFR-his were diluted to 2 μg/mL and 50 μL/well in a 96-well plate and incubated at 4° C. overnight. The plate was washed with 0.5×PBST, then incubated with 100 μL of a blocking buffer (PBS+3% BSA) at 37° C. for 2 h, and washed with 0.5×PBST. The 3F8 antibody was diluted with the blocking buffer in a 1:3 serial gradient, added at 50 μL/well, incubated at 37° C. for 40-50 min, and then washed with 0.5×PBST. Goat anti-mouse IgG-HRP (Southern Biotech, 1030-05) was diluted at 1:20000 with the blocking buffer, added at 50 μL/well, incubated in the dark for 30 min, and then washed with 0.5×PBST. Prior to assay, 50 μL of luminol buffer A+B was added to each well in a 1:1 mix.
(§2) Antibody stability test: the purified antibody at 5 mg/mL was stored at 4° C. as regular practice, incubated at 40° C. for 7 days and 14 days for heat stability evaluation, transferred to a glycine solution at pH 3.5 for regeneration, and stored for 2, 4 and 6 h for acid stability evaluation, or subjected to repeated freeze-thaw treatments for 4 or 6 cycles for freeze-thaw stability evaluation. Aggregation was measured by SEC-HPLC, and binding affinity was determined by ELISA.
Three clones of hu3F8 were freeze-thawed for 3 or 5 cycles, and then subjected to ELISA to measure the binding affinities. The chimeric antibody was subjected to parallel assay.

HER3 [2] = biological target: T1, HER3; test: ELISA binding affinity after incubation at pH 3.5 (acid stress)
Description: as §1, §2
Three clones of hu3F8 were incubated at pH 3.5 for 0, 2, 4 and 6 h, and then subjected to ELISA to measure the binding affinities.
EC50 assay of the three clones of hu3F8 after 0, 2, 4, and 6 h of incubation at pH 3.5. EC50 was determined by ELISA.

HER3 [3] = biological target: T1, HER3; test: ELISA binding affinity after incubation at 40° C. (heat stress)
Description: as §1, §2
The three clones of hu3F8 were incubated at 40° C. for different times and then subjected to ELISA to determine the binding affinities. The chimeric antibody was subjected to parallel assay.
EC50 assay of the three clones of hu3F8 incubated at 40° C. for different times. The three humanized 3F8 antibody clones were incubated in normal saline at 40° C. for 7 or 14 days, and the binding affinities after heat stress test were determined by ELISA. The chimeric antibody 3F8 was subjected to parallel assay.

His-HER3 = biological target: T2, His-HER3 (Homo sapiens, UniProt P21860); test: Binding kinetics by Biacore (SPR); details: antibody as ligand, analyte His-HER3, Biacore T200
T2 construct: His
Description: Affinity assay by surface plasmon resonance (SPR): antibody kinetics and affinity were determined using Biacore T200. Briefly, the recombinant human HER3 antibody was immobilized on a protein A chip (GE, Cat. 29-1275-5). The antigen concentration, from 50 nM to a final concentration of 0.78125 nM, was generated by 2-fold serial dilution, and affinity and kinetics were determined through the chip.
The binding affinity of humanized 3F8 (hu3F8) and chimeric 3F8. Binding kinetics of 3 humanized 3F8 clones and chimeric 3F8 were determined by Biacore. Three humanized 3F8 clones (clone 1, clone 2 and clone 3) had different heavy chains and one identical light chain. Clone 1, clone 2, and clone 3 corresponded to hu3F8-1, hu3F8-2, and hu3F8-3, respectively.
All data listed in Table 6 were processed using Biacore T200 evaluation software version 3.1.

[4] = Aggregation by SEC-HPLC after stress test; type: physicochemical
Description: as §2
Aggregations of 3 clones of hu3F8 after stability test and their aggregation evaluations on storage at 4° C. Aggregations of the three hu3F8 antibodies after acid treatment, repeated freeze-thaw and incubation at 40° C. were determined by SEC-HPLC and compared to each of the antibodies stored at 4° C. All the clones retained more than 95% of monomer after stress test, indicating little tendency to aggregate.

[5] = Antibody stored at 4° C., SEC-HPLC

B1: Clone 3: humanized 3F8; heavy chain SEQ ID NO: 14, light chain SEQ ID NO: 12 (antibody)
heavy: QVQLQESGPGLVKPSETLSLTCTVSGYSITSAYYWNWIRQPFGKGLEWMGYISYDGRNNFNPSLKNRVSISRDTSKNQFSLKLSSVTAADTATYYCARDGDYDYFDYWGQGTTVTVSS[human IgG1 constant region left out]
light: DIQMTQSPSSLSASVGDRVTITCRASQDISNYLNWYQQKPGKAPKLLIYYTSILHSGVPSRFSGSGSGTDYTFTISSLQPEDIATYFCQQGDTLPPTFGGGTKLEIKRTVAAPSVFIFPPSDEQLKSGTASVVCLLNNFYPREAKVQWKVDNALQSGNSQESVTEQDSKDSTYSLSSTLTLSKADYEKHKVYACEVTHQGLSSPVTKSFNRGEC
HER3 [1]; 0 freeze-thaw cycles
  EC50 after freeze-thaw stress: 0.04225 µg/mL
HER3 [1]; 3 freeze-thaw cycles
  EC50 after freeze-thaw stress: 0.03742 µg/mL
HER3 [1]; 5 freeze-thaw cycles
  EC50 after freeze-thaw stress: 0.03363 µg/mL
HER3 [2]; incubation time 0 hr
  EC50 after incubation at pH 3.5: 38.71 ng/mL
HER3 [2]; incubation time 2 hr
  EC50 after incubation at pH 3.5: 41.71 ng/mL
HER3 [2]; incubation time 4 hr
  EC50 after incubation at pH 3.5: 39.45 ng/mL
HER3 [2]; incubation time 6 hr
  EC50 after incubation at pH 3.5: 38.06 ng/mL
HER3 [3]; day 0
  EC50 after incubation at 40° C.: 0.04244 µg/mL
HER3 [3]; day 7
  EC50 after incubation at 40° C.: 0.04696 µg/mL
HER3 [3]; day 14
  EC50 after incubation at 40° C.: 0.04125 µg/mL
His-HER3
  ka: 644000 M⁻¹ s⁻¹
  kd: 0.000348 s⁻¹
[4]; [5]
  Dimer: 2.90%
  Monomer: 97.10%
[4]; Day 7 at 40° C.
  Dimer: 2.91%
  Monomer: 97.09%
[4]; Day 14 at 40° C.
  Dimer: 2.96%
  Monomer: 97.04%
[4]; Freeze-thaw for 3 cycles
  Dimer: 2.90%
  Monomer: 96.97%
  Tetramer: 0.13%
[4]; Freeze-thaw for 5 cycles
  Dimer: 2.87%
  Monomer: 97.01%
  Tetramer: 0.12%
[4]; pH 3.5 for 2 h
  Dimer: 2.96%
  Monomer: 97.04%
[4]; pH 3.5 for 4 h
  Dimer: 2.87%
  Monomer: 97.13%
[4]; pH 3.5 for 6 h
  Dimer: 2.94%
  Monomer: 97.06%
